Test results published in PubChem BioAssay AID1458 (National Center for Advancing Translational Sciences (NCATS), 2008).
Among all 210,000 compounds or so, about 5,900 (2.8%) were called active. This list was built around the results that the source calls inconclusive (neither active nor inactive); the mix of calls is not that of the screen. Calls follow the shape of the dose curve; as a rule, active = well fitted activation curve with a large enough effect; inconclusive = small, poorly fitted or top-dose-only effect; inactive = no such curve, though single readings can be large or run the other way. Where the call is inconclusive, the potency comes from a doubtful curve fit.

test: qHTS Assay for Enhancers of SMN2 Splice Variant Expression; conditions: HEK293 SMN2-luciferase splicing reporter, luminescence, 30-36 h; activity change, positive = activation: at 46.1 µM (top of the series); also: nearly all actives have a fitted effect of over 55% in size; as to activity change, positive = activation: % of control where 0% means no effect
Outline: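 HEK293 cells carry an SMN2 minigene-luciferase reporter in which exon 7 inclusion puts luciferase in frame. Cells were seeded at 2000 cells/well, attached for 10-12 hours, then exposed to compounds for 30-36 hours at 37C before ONE-Glo luminescence.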
Potency is read from the fitted curve at half-maximal effect; tags tell the direction and shape of the fitted curve.

Structure (SMILES) | Potency | activity change, positive = activation
Clc1ccc2[nH]cc(-c3nnnn3-c3ccc4ccccc4c3)c2c1 | inconclusive: 3.98 µM [activator, partial curve, poor fit] | 
COCCNC(=S)Nc1ccc(Cl)c(Cl)c1 | inconclusive: 7.94 µM [activator, partial curve, poor fit] | 
N#C/C(=C\c1ccc(-c2ccccc2[N+](=O)[O-])o1)C(=O)Nc1nc(-c2cccs2)cs1 |  | inactive: -29.2%
O=C(Nc1nc2ccc([N+](=O)[O-])cc2s1)c1c(F)cccc1F | inconclusive: 12.6 µM [activator, partial curve] | 
Cc1cccc(N(C(=O)CCC(=O)Nc2ccccn2)C(C(=O)NC(C)C)c2ccc(O)cc2)c1 (configuration not stated) | inconclusive: 35.5 µM [activator, single point] | 
O=C(NCCc1ccccc1)C(=O)NC1CCCCC1 |  | inactive: 57.9%
O=[N+]([O-])c1nn(-c2ccccc2)n(O)c1=NCCc1ccccc1 | inconclusive: 10 µM [activator, partial curve] | 
CCCCCSc1nnc2c(n1)OC(c1cccn1C)N(C(C)=O)c1ccccc1-2 (configuration not stated) |  | inactive: -8.1%
Cn1ncc(Cl)c1C(=O)Nc1nc2ccc(Cl)cc2s1 | active: 3.55 µM | 
CCOC(=O)c1nn(-c2ccc3c(c2)OCCO3)cc1O | inconclusive: 35.5 µM [activator, single point] | 
CC(C)OC(=O)COc1ccc(-c2ccccc2)cc1 |  | inactive: 6.52%
COc1ccc(-c2nc(SC)n(C(=O)c3ccco3)n2)cc1 | inconclusive: 35.5 µM [activator, single point] | 
Fc1ccc(N2CCN(c3ncnc4onc(-c5ccc(Cl)cc5)c34)CC2)cc1 | inconclusive: 2.82 µM [activator, single point] | 
Cc1cc(NC(=O)CSc2nc3ccsc3c(=O)n2Cc2ccccn2)n[nH]1 | inconclusive: 6.31 µM [activator, full curve] | 
Cc1ccc(C(=O)c2c(N)c(C(=O)Nc3cccc(C(F)(F)F)c3)c3ccccn23)cc1 |  | inactive: 10.8%
Cc1nc(NC(=O)/C=C/c2ccccc2)sc1C(=O)Nc1ccccc1 |  | inactive: 5.05%
C=CCN(C(=O)CSC1=NC(=O)CN1C(C)=O)c1nc(C)c(-c2ccccc2)s1 | inconclusive: 35.5 µM [activator, single point] | 
CC(=O)c1cccc(NC(=O)c2cc3ccccn3n2)c1 |  | inactive: 24.1%
CCOC(=O)CSc1nc2ccccc2c(=O)n1C | inconclusive: 14.1 µM [activator, partial curve] | 
Cc1cc2nc(-c3ccc(SCC(=O)Nc4ccc(S(=O)(=O)N5CCCC5)cc4)nc3)[nH]c2cc1C | active: 12.6 µM | 
Cn1c(=O)c2[nH]c(-c3ccccc3Cl)c(O)c2n(C)c1=O | inconclusive: 0.794 µM [activator, full curve, poor fit] | 
COc1ccc(Nc2ncnc3nc[nH]c23)cc1OC | inconclusive: 12.6 µM [activator, partial curve, poor fit] | 
Cc1nn(-c2ccccc2)c(Cl)c1/C=N/NC(=O)c1cccnc1 | inconclusive: 20 µM [activator, partial curve, poor fit] | 
CCCOc1ccccc1-c1nc(SCCC(=O)O)n[nH]1 | active: 7.08 µM | 

Structure (SMILES) | Potency | activity change, positive = activation
Cc1ccc(SCC(=O)N2CCc3ccccc32)cc1 | inconclusive: 25.1 µM [activator, single point] | 
CNC(=O)[C@H]1O[C@@H](n2cnc3c(N)ncnc32)[C@H](O)[C@@H]1O |  | inactive: 2.89%
CC(C)(C)S(=O)(=O)c1cnc2c(-c3ccsc3)cnn2c1N | inconclusive: 28.2 µM [activator, single point] | 
Cn1c(=O)c(=O)n(C)c2cc(S(=O)(=O)CCC(=O)N3CCOCC3)ccc21 | inconclusive: 0.316 µM [activator, full curve, poor fit] | 
CC1SC(C)C(=O)N(CC(=O)Nc2ccc([N+](=O)[O-])cc2)C1=O (configuration not stated) |  | inactive: 8.85%
CCS(=O)(=O)N1Cc2ccccc2CC1C(=O)Nc1ncc(C)s1 (configuration not stated) | active: 12.6 µM | 
O=[N+]([O-])c1ccc(NC(=S)NCCc2ccccc2)cc1 | inconclusive: 2 µM [activator, partial curve] | 
CCCC[n+]1ccc(-c2nc3ccc([N+](=O)[O-])cc3[nH]2)cc1 | active: 11.2 µM | 
Nc1ccc(Nc2ccccc2N)cc1 | inconclusive: 17.8 µM [activator, single point] | 
CCN1CCN(C(=O)CN(Cc2ccccc2)S(C)(=O)=O)CC1 | inconclusive: 6.31 µM [activator, partial curve, poor fit] | 
O=C(/C=C/c1ccc(Cl)cc1)c1cccnc1 |  | inactive: -8.11%
Cc1ccc(-n2nc(C)c3c(C(F)(F)F)cc(-c4cccnc4)nc32)cc1C |  | inactive: 7.1%
Oc1cccc(/C=N/Nc2ncnc3c2ncn3Cc2ccccc2)c1 |  | inactive: 3.41%
CNC1C(O)[C@@H]2OC(O[C@@H]3C(O)C(O)C(N)C[C@H]3N)C(N)C[C@H]2O[C@H]1O[C@@H]1OC(CO)C(N)C(O)C1O (some centres not stated) |  | inactive: 3.97%
O=C(N1CCCC1)N1CCN(c2ncnc3c(-c4ccc(Cl)cc4)nsc23)CC1 | inconclusive: 0.891 µM [activator, full curve] | 
COc1ccc(OC)c(-c2csc(N(Cc3ccco3)C(=O)c3ccco3)n2)c1 |  | inactive: -26.9%
Cn1c(CN2CCCC2)nc2cc(NC(=O)c3ccco3)ccc21 | inconclusive: 14.1 µM [activator, partial curve, poor fit] | 
Clc1ccc(-c2nc3ccccn3c2CN2CCOCC2)cc1 |  | inactive: 7.17%
CCCc1nccn1S(=O)(=O)c1cc(OC)ccc1OC | inconclusive: 2.51 µM [activator, full curve] | 
CCOC(=O)c1sc(NC(=O)c2ccc(CC)s2)nc1C | active: 2 µM | 
CCCCCn1c(CN2CCN(C(=O)OCC)CC2)nc2c1c(=O)[nH]c(=O)n2C | inconclusive: 5.62 µM [activator, single point] | 
CCC(C)NC(=O)Cn1c(COc2ccc(Cl)cc2Cl)nc2ccccc21 (configuration not stated) | active: 22.4 µM | 
O=c1nc(Nc2ccccc2)sc2ccc([N+](=O)[O-])cc12 | inconclusive: 35.5 µM [activator, single point] | 
CCOC(=O)c1cc(C)sc1N1C(=O)C2C3C=CC(C3)C2C1=O (configuration not stated) | inconclusive: 0.0224 µM [activator, full curve, poor fit] | 

Structure (SMILES) | Potency | activity change, positive = activation
CCc1ccc(C(=O)/C=C/c2ccc([N+](=O)[O-])o2)cc1 |  | inactive: -92.2%
N#Cc1c(-c2ccccc2)nc(SCc2nc(N)nc(N3CCCCC3)n2)[nH]c1=O | inconclusive: 4.47 µM [activator, partial curve, poor fit] | 
O=C(NCc1nnc(SCC(=O)N2CCCC2)o1)c1c(F)cccc1Cl | inconclusive: 7.08 µM [activator, full curve, poor fit] | 
CC(C)c1ccc2[nH]c3nc(SCC(=O)N4CCOCC4)nnc3c2c1 | inconclusive: 0.178 µM [activator, full curve, poor fit] | 
CCOCc1nc(C)c(Cl)c(NS(=O)(=O)c2ccc(N)cc2)n1 | inconclusive: 0.02 µM [activator, full curve] | 
COc1cccc(C2C3=C(CC(C)(C)CC3=O)OC(N)=C2[N+](=O)[O-])c1 (configuration not stated) | inconclusive: 3.55 µM [activator, single point] | 
Cn1c(=O)[nH]c(=O)c2c1ncn2CCN1CCOCC1 | inconclusive: 0.0158 µM [activator, full curve, poor fit] | 
CC(C)Nc1nnc(SCC(=O)Nc2ccc3c(c2)C(=O)c2ccccc2C3=O)s1 | active: 14.1 µM | 
CCOC(=O)/C=C/CCCC=O |  | inactive: 10.3%
CC(C)(C)NC(=O)NC(=O)COC(=O)c1ccc(OC(F)(F)F)cc1 | inconclusive: 0.0028 µM [activator, full curve, poor fit] | 
CCNC(=S)NNC(=O)c1cc(C2CC2)nc2ccccc12 |  | inactive: -0.986%
Cc1ccc2occ(C3NC(C(=O)O)CS3)c(=O)c2c1 (configuration not stated) | inconclusive: 3.98 µM [activator, single point] | 
COc1cccc(NC(=O)Cn2c(=O)oc3ccccc32)c1 | inconclusive: 0.0045 µM [activator, full curve, poor fit] | 
CCOC(=O)N1C=CC=C[C@@H]2[C@@H](N3C(=O)c4ccccc4C3=O)C(=O)N21 |  | inactive: 4.13%
CCC/C=N/Nc1nc2ccccc2s1 | inconclusive: 11.2 µM [activator, partial curve] | 
COC(=O)c1ccccc1NC(=O)CN1CCC(NC(=O)c2ccc(C)cc2)CC1 | inconclusive: 0.562 µM [activator, full curve] | 
Fc1ccc(Oc2cnns2)cc1 |  | inactive: -2.21%
COc1cc(OC)c2c(C)c(CC(=O)N3CCCCC3)c(=O)oc2c1 |  | inactive: 8.03%
Cc1cccc(NC(=O)[C@H](Cc2ccccc2)NC(=O)OCc2ccccc2)c1 | inconclusive: 4.47 µM [activator, partial curve, poor fit] | 
C[C@]12CCC(=O)C=C1CCC1C2C(=O)C[C@]2(C)C1CC[C@]2(O)C(=O)CO (some centres not stated) |  | inactive: 5.85%
CC(=O)Nc1cccc(C(=O)N/N=C/c2ccccc2F)c1 | inconclusive: 0.794 µM [activator, single point] | 
COC(=O)/C(=C/c1cccc([N+](=O)[O-])c1)NC(=O)c1ccc(OC)cc1 | inconclusive: 0.178 µM [activator, full curve] | 
Oc1ccc2ccccc2c1/C=N/Nc1ccccc1 | inconclusive: 25.1 µM [activator, single point] | 
O=C(/C=C\c1ccc(-c2ccccc2)o1)c1ccccc1 | inconclusive: 35.5 µM [activator, single point] | 
